Source: PMC4336329 (PLoS ONE, 2015)
Hit rate of the full screen: of about 310,000 compounds, about 14,000 (4.5%) showed an effect of 50% or more. The effect is printed as a negative number. The list shows a part of the results.

target: human ether-à-go-go-related gene (hERG) potassium channel (human, UniProt Q12809); assay: primary screen, population patch clamp on CHO cells stably expressing hERG
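Note: peak tail current of the secondary pulse compared with the same well before compound.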

human ether-à-go-go-related gene (hERG) potassium channel, sequence (Q12809 whole entry, looked up): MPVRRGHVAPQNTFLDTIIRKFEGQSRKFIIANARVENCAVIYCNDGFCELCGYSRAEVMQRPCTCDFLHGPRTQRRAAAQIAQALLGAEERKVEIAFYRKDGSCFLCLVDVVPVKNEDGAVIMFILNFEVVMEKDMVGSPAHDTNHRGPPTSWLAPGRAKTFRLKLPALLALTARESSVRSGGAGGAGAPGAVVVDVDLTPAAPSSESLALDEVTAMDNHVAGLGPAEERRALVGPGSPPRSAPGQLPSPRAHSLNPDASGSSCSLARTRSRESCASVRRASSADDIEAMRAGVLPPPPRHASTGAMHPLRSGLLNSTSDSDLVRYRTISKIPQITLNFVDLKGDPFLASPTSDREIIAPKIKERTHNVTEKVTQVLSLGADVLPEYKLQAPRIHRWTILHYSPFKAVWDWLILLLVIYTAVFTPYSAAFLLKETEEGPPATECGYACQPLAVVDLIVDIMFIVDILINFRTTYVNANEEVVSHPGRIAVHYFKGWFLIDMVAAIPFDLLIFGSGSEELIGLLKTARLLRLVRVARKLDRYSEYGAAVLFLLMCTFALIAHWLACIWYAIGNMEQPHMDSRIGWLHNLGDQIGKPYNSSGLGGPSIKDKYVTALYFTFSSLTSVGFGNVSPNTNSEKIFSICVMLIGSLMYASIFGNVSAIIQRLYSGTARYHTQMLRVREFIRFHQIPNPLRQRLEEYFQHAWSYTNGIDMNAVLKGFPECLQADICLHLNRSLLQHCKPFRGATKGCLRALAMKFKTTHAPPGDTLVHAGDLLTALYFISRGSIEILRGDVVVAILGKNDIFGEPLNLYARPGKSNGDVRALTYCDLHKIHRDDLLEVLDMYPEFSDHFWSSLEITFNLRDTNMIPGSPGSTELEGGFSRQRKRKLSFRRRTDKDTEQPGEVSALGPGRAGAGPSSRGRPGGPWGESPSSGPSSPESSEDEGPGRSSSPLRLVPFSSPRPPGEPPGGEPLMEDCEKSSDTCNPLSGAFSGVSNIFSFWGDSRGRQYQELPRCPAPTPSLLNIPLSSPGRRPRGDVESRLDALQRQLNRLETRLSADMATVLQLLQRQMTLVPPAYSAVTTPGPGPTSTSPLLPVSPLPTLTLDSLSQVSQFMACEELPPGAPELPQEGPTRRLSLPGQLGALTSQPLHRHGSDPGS

Structure (SMILES)	hERG current change (%, negative = inhibition) at 10uM
Clc1ccc(NNc2ccnc3cc(Cl)ccc23)cc1	-3.75%
O=C(Nc1scc(-c2ccc(Br)cc2)c1C(=O)O)c1ccccc1F	31.2%
Brc1ccc(COc2ncnc3ccccc23)cc1	-4.31%
CC(=NCCc1c(C)[nH]c2ccc(C)cc12)C1=C(O)CC(c2ccccc2)CC1=O (stereo not drawn)	-4.58%
CN1CCN(Cc2c(O)ccc3c2oc(=O)c2ccccc23)CC1	7.11%
Cc1c(CNCCc2ccccc2Cl)c(C(=O)O)c(C)n1-c1ccccc1	3.78%
Cc1ccc(S(=O)(=O)Nc2ccc3c(c2)nc(CN2CCCC2)n3C)cc1	-46.5%
CCOC(=O)c1c(NC(=O)Cn2nc(C(F)(F)F)cc2C)sc2c1CCC2	-4.65%
Cc1ccc(N=Cc2sc(O)c3ccccc23)c(C)c1	23.5%
Nc1n[nH]c2c1C1(CCCC1)Cc1ccccc1-2	9.98%
COc1ccccc1-c1cc(C(=O)NCc2ccccc2)no1	-12%
CCOC(=O)c1sc(NC(=O)C2CC(=O)N(c3ccc(C)cc3)C2)nc1C (stereo not drawn)	-18.5%
CC1CCCCN1Cc1ccc(N(C)C)cc1 (stereo not drawn)	8.46%
COc1ccc(NC(=O)CSc2nnnn2-c2ccccc2F)cc1	7.62%
CC(CP(=O)(O)O)NC(=O)Cc1ccccc1 (stereo not drawn)	9.67%
Clc1ccc(CNc2cnccn2)cc1	29.4%
COC(=O)c1ccc(CO/N=C(\NC(C)=O)c2nonc2NC(C)=O)cc1	11.9%
CCN(CC)CCCNC(=O)c1cc2c(=O)n(C)c3ccccc3c2n1C	-1.21%
O=C(CNC(=O)c1cccs1)c1ccc(Cl)cc1	13.1%

Structure (SMILES)	hERG current change (%, negative = inhibition) at 10uM
O=C(Nc1ccc(Cl)cc1)Nc1ccc(Br)cn1	9.52%
Cc1cc(C)cc(OCC(=O)OCC(=O)NCCC2=CCCCC2)c1	8.61%
CCc1cc(CC)c(/C=N/NC(N)=O)c(CC)c1	7.35%
O=c1c2ccccc2nc(-c2ccccc2)n1CCCN1CCOCC1	-20.4%
Cc1ccc(CN2C(=O)CSC(C)C2=O)cc1 (stereo not drawn)	5.73%
CCCCN(C(=O)Cc1ccc2c(c1)OCCO2)c1c(N)n(CCC)c(=O)[nH]c1=O	12.8%
CN(CC(=O)Nc1ccc(Cl)cc1F)C1CCS(=O)(=O)C1 (stereo not drawn)	-20.6%
CC/C(=C/c1sc2ccc(C)cc2[n+]1CCO)SC.COS(=O)(=O)[O-]	18.8%
CCCOc1cccc(-c2cc(C(=O)N/N=C/c3cccnc3)c3ccccc3n2)c1	-6.32%
O=C(c1ccccn1)N1CCN(S(=O)(=O)c2ccc3ccccc3c2)CC1	-25.4%
Cc1c(O)nc(SCC(=O)Nc2ccc3c4c(cccc24)CC3)n(-c2ccccc2)c1=O	3.98%
CC(C)CCNc1nc(N)c([N+](=O)[O-])c(NCCO)n1	4.26%
Cc1cc2oc3ccc(NCCC4CCCN4C)cc3c(=O)c2cc1C (stereo not drawn)	-38.7%
CC(=O)c1cn(C(=O)c2ccc(Cl)cc2)c2ccccc12	20.5%
Cc1ccc(C)c(NC(=O)CCc2ccc(C)o2)c1	7.43%
COC(=O)CCN(C(=O)c1ccc(N2CCCC2)c([N+](=O)[O-])c1)c1ccccn1	11%
C=C(C)CSc1nc2sc3c(c2c(=O)n1-c1ccc(OC)cc1)CCN(C)C3	11.9%
Cc1onc(-c2ccccc2Cl)c1C(=O)OCC(=O)c1ccc[nH]1	-18.7%
O=C(CSc1n[nH]c(-c2ccccn2)n1)Nc1ccccc1F	-1.74%

Structure (SMILES)	hERG current change (%, negative = inhibition) at 10uM
COc1ccc(CCC(=O)NNC(=O)c2cc(Cl)ccc2OC)cc1	-3.63%
O=C1C2C(c3ccccc3)CC=CC2[C@H](c2ccoc2)N1Cc1ccccc1 (stereo partly drawn)	-42.9%
COc1ccc(/C=C/C(=O)NC2CCCCC2C)cc1 (stereo not drawn)	7.99%
O=C(CSc1nc(O)cc(=O)[nH]1)N1c2ccccc2CCc2ccccc21	-3.03%
CCCCCNC(=O)c1cn(CC)c2cc(N3CCN(C)CC3)c(F)cc2c1=O	-15.8%
Cn1c(-c2ccc3c(c2)OCO3)cnc1NC(=O)CCC(=O)NCCc1ccccc1	-6.98%
Cc1cc(C)c2c(c1)/C(=N/NC(=O)c1cc(C)oc1C)CCC2	6.66%
Cc1ccc(-n2nnnc2SCC(=O)Nc2ccc3c(c2)COC3=O)cc1C	13.5%
O=C(NCc1ccccc1OC(F)(F)F)C1CCC(=O)N(C2CC2)C1 (stereo not drawn)	4.55%
O=C(Nc1ccc(S(=O)(=O)NC2=NCCCCC2)cc1)c1ccc(C(F)(F)F)cc1	-25%
Cc1cc(OCC(=O)NC(Cc2ccc(Cl)cc2)C(=O)O)c2c3c(c(=O)oc2c1)CCC3 (stereo not drawn)	15.4%
CCC(C)CCN1C(N(C)C)=NC[C@@H]1Cc1ccccc1 (stereo partly drawn)	-22.5%
CC1CC2=C(CC1/C=N/NC(N)=S)C(C)(C)CCC2 (stereo not drawn)	1.92%
COc1cc(C2CC(=O)c3c([nH]c(C(=O)OCCOC(C)C)c3C)C2)cc(OC)c1OC (stereo not drawn)	-4.72%
CCOC(=O)c1nn(-c2ccccc2)c(=O)cc1OCC(=O)Nc1ccccc1OCC	-8.25%
Cc1ccc(N2C(=O)c3ccc(C(=O)N4CCOCC4)cc3C2=O)cc1C	-0.618%
N#CC1=C2SCN(c3ccc(F)cc3)CN2C(=O)CC1c1cccc(F)c1 (stereo not drawn)	14.1%
O=C(CCCN1C(=O)/C(=C\c2cccs2)SC1=S)Nc1ccc(C(=O)O)cc1	8.37%
CCOC(=O)c1cc(CC)sc1NC(=O)COc1ccc2c(C)cc(=O)oc2c1	3.4%
